Data as given in PubChem BioAssay AID652106 (National Center for Advancing Translational Sciences (NCATS), 2013).
Screen size: about 370,000 compounds; about 500 (0.14%) were called active. Inconclusive results, whose numbers are uncertain, are shown with a selection of clear calls. Calls come from the whole dose curve; as a rule, active = well fitted activation curve with a large enough effect; inconclusive = small, poorly fitted or top-dose-only effect; inactive = no such curve, though single readings can be large or run the other way. No potency is given beside an inconclusive call; the fits are too rough.

Assay: qHTS of alpha-syn Inhibitors; note: nearly all actives have a fitted effect of over 65% in size; for growth rescue (activation): % of control where 0% means no effect
Settings: Yeast expressing alpha-synuclein, BacTiter-Glo, 24 h; Potency: growth rescue unless noted; growth rescue (activation): at 46.1 µM (top of the series) unless noted
Procedure, shortened: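 Readout is rescue of growth in alpha-synuclein-expressing yeast, so inhibitors of toxicity appear as activators. Growth after 24 hr at 30 deg C in galactose medium is quantified by luminescence.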
Potency is the fitted concentration of half-maximal effect; tags give direction and shape of the fitted curve.

SMILES | Potency | growth rescue (activation)
CCn1cc(C(=O)NCc2ccc3c(c2)OCO3)c(=O)c2cc(F)c(N3CCN(C(=O)c4ccco4)CC3)cc21 | inconclusive [activator, single point] | –
COc1cccc(NC(=O)N2CCc3nc(Nc4cc(Cl)cc(Cl)c4)ncc3C2)c1 | inconclusive [activator, single point] | –
CCN1CCN(C(=O)CSc2ccc(C)cc2)CC1 | inconclusive [activator, single point] | –
Cc1c2cnccc2c(C)c2c1c1ccccc1n2CCOC(=O)c1ccccc1 | inconclusive [activator, single point] | –
c1ccc(-c2csc3nnc(SCc4ccc5c(c4)OCCO5)n23)cc1 | inconclusive [activator, single point] | –
COc1ccc(Cl)cc1NC(=O)CN(C)C(=O)CCSc1ccc(C)cc1 | inconclusive [activator, single point] | –
CCc1c(C)c2ccc(OC(C)C(=O)NC(Cc3c[nH]c4ccc(O)cc34)C(=O)O)c(C)c2oc1=O (centres undefined) | inconclusive [activator, single point] | –
COCCNC(=O)c1cc2c(-c3ccccc3F)nn(C)c2s1 | inactive | –
NC(=O)NOCc1ncc(C(F)(F)F)cc1Cl | inactive | –
O=C(Nc1nnc(-c2ccco2)s1)C1CCCCC1 | inactive | –
CC(NC(=O)c1cccc2c1Oc1ccccc1S2)C(=O)O (centres undefined) | inconclusive [activator, single point] | –
O=C(Nc1cccc(-c2cn3ccccc3n2)c1)c1ccccc1 | inactive | –
Nc1nccc(/C=C/c2c(F)cccc2Cl)n1 | inconclusive [activator, single point] | –
COc1cc(-c2ccc3cc(OC)c(OC)c(OC)c3c2)cc(OC)c1OC | inconclusive [activator, single point] | –
CCCCCC(=O)NNC(=S)NC(=O)c1ccc([N+](=O)[O-])cc1 | active: 22.4 µM | –
O=C(/C=C/c1ccc(Cl)c([N+](=O)[O-])c1)c1cccnc1 | inconclusive [activator, full curve] | –
CCOC(=O)CCCC(=O)N1CCN(/[N+]([O-])=N/Oc2ccc([N+](=O)[O-])cc2[N+](=O)[O-])CC1 | inactive | –
Cc1ccccc1CNC(=O)c1ccc2sc([C@H]3C[C@H](O)[C@@H](CO)O3)nc2c1 | inconclusive [activator, single point] | –
CCOc1ccc(C2NC(=O)C(C#N)=C(S)N2c2cccc(C)c2)cc1OC (centres undefined) | inconclusive [activator, single point] | –
COc1ccc(C2CC(c3ccc(C(F)(F)F)cc3)=NN2c2ccc(S(N)(=O)=O)cc2)cc1 (centres undefined) | inconclusive [activator, single point] | –
O=C(O)c1ccccc1N=Cc1c(O)n(-c2nccs2)c(=O)c2ccccc12 | inconclusive [activator, single point] | –
N#Cc1cc(S(=O)(=O)c2ccc(F)cc2)c(N)[nH]c1=O | inconclusive [activator, single point] | –
Cc1ccc(C)c(N(C(=O)c2ccco2)C(C(=O)NC2CCCC2)c2ccco2)c1 (centres undefined) | inactive | –

SMILES | Potency | growth rescue (activation)
CCc1ccc(C(=O)N2CCN(S(=O)(=O)c3sc(C(=O)O)c(C)c3C(=O)O)CC2)cc1 | inconclusive [activator, single point] | –
CCOC(=O)c1c(CNc2ccncc2)n(C)c2cc(Br)c(O)cc12 | inconclusive [activator, full curve] | –
CCOC(=O)C1CCN(C(=O)c2cn(CCOC)c(=O)c3c2c2ccccc2n3C)CC1 | inactive | –
Cc1ccc(C)c(S(=O)(=O)N2CCN(C(=O)Cc3sc(C)nc3-c3ccc(F)cc3)CC2)c1 | active: 15.8 µM | –
COc1ccc(NC(=O)Cn2nnc(-c3ccc(CN4CCOCC4)cc3)n2)c(OC)c1 | inconclusive [activator, single point] | –
COc1ccccc1NC(C)C(=O)c1c(C)[nH]c2ccccc12 (centres undefined) | inactive | –
CC(C)C[C@@H]1Cc2[nH][nH]c(=O)c2[C@H](C(C)C)O1 | inconclusive [activator, single point] | –
CC(NC(=O)COc1ccc(S(=O)(=O)N2CCCC2)cc1)c1ccccc1 (centres undefined) | inconclusive [activator, single point] | –
Cc1c(C(=O)N2CCC(C)CC2)oc2ccc3c(c12)C(O)CC1(CCCCC1)O3 (centres undefined) | inconclusive [activator, single point] | –
Fc1ccc2[nH]c3c(N4CCN(c5ccccc5)CC4)ncnc3c2c1 | inactive | –
Cc1ccc(S(=O)(=O)N2CCN(C(=O)c3cc(=O)[nH]c4ccccc34)CC2)c(C)c1 | inactive | –
CCOc1ccc(-c2nc(N)ncc2Oc2ccc(OC)cc2)c(O)c1 | inconclusive [activator, single point] | –
CSc1nc(N)n2nc(C)cc2n1 | inactive | –
Cc1cccc(NC(=O)Cc2ccc(NC3=NC4CS(=O)(=O)CC4S3)cc2)c1 (centres undefined) | inconclusive [activator, single point] | –
O=C(CSc1n[nH]c(-c2cccs2)n1)N1CCCC1 | inconclusive [activator, single point] | –
CCNc1nc(NC(C)C)nc(NS(=O)(=O)c2ccc(C)cc2)n1 | inconclusive [activator, single point] | –
O=C(OCC(=O)N1CCC(Cc2ccccc2)CC1)c1ccc(O)cc1 | inconclusive [activator, single point] | –
COc1ccc(C2CC(=O)C(C=NCCN3CCN(C(C)=O)CC3)=C(O)C2)cc1 (centres undefined) | inconclusive [activator, single point] | –
CCCc1ccc(NC(=O)C2CCCN(c3cnccn3)C2)cc1 (centres undefined) | inconclusive [activator, single point] | –
CSc1ccc(C(=O)Nc2cc(S(=O)(=O)N3CCOCC3)ccc2N2CCOCC2)cc1[N+](=O)[O-] | inactive | –
O=C(CCl)N1N=C(c2cccs2)CC1c1ccco1 (centres undefined) | inactive | –
CC(=O)/C(=C\N(C)C)Sc1ccc(Cl)cc1 | inconclusive [activator, single point] | –
CCCCNC(=O)c1ccc2nc(CC)c(N(C)Cc3cccs3)n2c1 | inconclusive [activator, single point] | –

SMILES | Potency | growth rescue (activation)
Fc1ccccc1NC(=S)NN(Cc1ccccc1)c1ccccc1 | inconclusive [activator, single point] | –
Cc1ccc(CN2CCCC2(C)C(=O)NC(C)C)cc1 (centres undefined) | inconclusive [activator, single point] | –
OC(c1ccc(F)cc1)c1nc(-c2cc3ccccc3o2)cs1 (centres undefined) | – | inconclusive: -50.1% [activator]
COC(=O)CCN(Cc1ccccc1)S(=O)(=O)c1ccccc1Br | inconclusive [activator, single point] | –
Nc1nc(Nc2ccccc2F)sc1C(=O)c1ccccc1 | inactive | –
COc1ccc(S(=O)(=O)NCCc2sc(-c3cccc(C)c3)nc2C)cc1 | inconclusive [activator, single point] | –
COCc1nc2ccccc2n1Cc1ccccc1 | inconclusive [activator, single point] | –
CCOC(=O)c1ccc(NC(=O)CCc2c(C)nc3c(c(C)nn3C(C)(C)C)c2C)cc1 | inactive | –
CCN(CC)C(=O)[C@H]1C[C@H](CC(=O)NCC23CC4CC(CC(C4)C2)C3)C(=O)N2CCc3c([nH]c4ccc(Cl)cc34)[C@]12C | inconclusive [activator, single point] | –
CCN(C(=O)c1cc2cc(Br)cc(OC)c2oc1=O)c1ccccc1 | inconclusive [activator, single point] | –
COc1cc(Cl)c(NC(=O)CN(C)S(=O)(=O)c2ccc3c(c2)CCCC(=O)N3)c(OC)c1 | inactive | –
CCS(=O)(=O)c1cccc(C(=O)N2CCN(c3nc4c(C)ccc(Cl)c4s3)CC2)c1 | inconclusive [activator, single point] | –
O=C1c2ccccc2C(O)N1Cc1ccco1 (centres undefined) | inconclusive [activator, single point] | –
CCOC(=O)c1sc2ccccc2c1NC(=O)c1coc2ccccc2c1=O | inactive | –
COc1ccc(OCc2nc3c4c(-c5ccc(OC)cc5)c(-c5ccc(OC)cc5)oc4ncn3n2)cc1 | inconclusive [activator, single point] | –
N#Cc1c2ccccc2nc2ccccc12 | inconclusive [activator, partial curve] | –
O=C(Oc1ccnc2cc(Cl)ccc12)N1CCCCCC1 | inconclusive [activator, single point] | –
COc1ccc(/C=N/NC(=O)c2ccc(CSc3nc(C)cc(C)n3)cc2)c(OC)c1OC | inactive | –
CC1C(=O)Nc2ccc(S(=O)(=O)NCCc3ccc(Cl)cc3)cc2NC1=O (centres undefined) | inconclusive [activator, single point] | –
CCCNC(=O)C1(C)CCN1C(=O)c1ccccc1CCc1ccccc1 (centres undefined) | inconclusive [activator, single point] | –
O=C(CSc1c(Cl)cccc1Cl)NC1CCCc2ccccc21 (centres undefined) | inactive | –
N#Cc1c(N)[nH]c(C(=O)c2ccccc2)c1-c1ccc(Cl)cc1 | inconclusive [activator, single point] | –
CNc1c(Br)cc(C=O)cc1Br | inactive | –
